Measured values from article PMC11126580.
No constants are given. Whether binding was seen depends on the method and setting. Binding seen in cells or lysates may run through a third protein. Some binding calls cover weakened binding; strength is not graded here. Values belong to the molecule of their own block, whether it stands above or below them.

Chains of the proteins cited; added tags and fusions are not shown. Lines headed by an entry give the natural chain unless they say otherwise; changes in a name come on top.
UniProt Q13547: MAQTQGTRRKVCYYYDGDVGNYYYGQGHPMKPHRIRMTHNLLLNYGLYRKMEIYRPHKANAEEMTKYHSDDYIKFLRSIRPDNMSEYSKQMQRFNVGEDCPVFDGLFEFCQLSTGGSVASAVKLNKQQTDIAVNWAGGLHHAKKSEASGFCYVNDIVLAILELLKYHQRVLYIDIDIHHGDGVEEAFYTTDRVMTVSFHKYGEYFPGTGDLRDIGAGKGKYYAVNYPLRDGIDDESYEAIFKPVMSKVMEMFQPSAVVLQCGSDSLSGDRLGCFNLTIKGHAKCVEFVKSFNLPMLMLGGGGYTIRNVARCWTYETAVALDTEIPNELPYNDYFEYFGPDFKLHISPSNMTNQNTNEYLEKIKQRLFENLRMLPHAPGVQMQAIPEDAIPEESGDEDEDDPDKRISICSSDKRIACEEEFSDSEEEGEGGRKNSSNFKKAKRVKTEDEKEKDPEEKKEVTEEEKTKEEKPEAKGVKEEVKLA

Columns and labels:
[1] = target: LIN37 (human (endogenous in T98G)) (UniProt Q96GY3); experiment: co-IP; endogenous proteins immunoprecipitated with antibodies on protein A/G magnetic beads from extracts of T98G cells serum-starved for 96 hours; 150 mM NaCl, 0.2% Triton X, 3 hours at 4 °C; eluates analysed by Western blot
[2] = target: T1, SIN3B (human (endogenous in T98G)) (UniProt O75182); experiment: as above
T1 sequence: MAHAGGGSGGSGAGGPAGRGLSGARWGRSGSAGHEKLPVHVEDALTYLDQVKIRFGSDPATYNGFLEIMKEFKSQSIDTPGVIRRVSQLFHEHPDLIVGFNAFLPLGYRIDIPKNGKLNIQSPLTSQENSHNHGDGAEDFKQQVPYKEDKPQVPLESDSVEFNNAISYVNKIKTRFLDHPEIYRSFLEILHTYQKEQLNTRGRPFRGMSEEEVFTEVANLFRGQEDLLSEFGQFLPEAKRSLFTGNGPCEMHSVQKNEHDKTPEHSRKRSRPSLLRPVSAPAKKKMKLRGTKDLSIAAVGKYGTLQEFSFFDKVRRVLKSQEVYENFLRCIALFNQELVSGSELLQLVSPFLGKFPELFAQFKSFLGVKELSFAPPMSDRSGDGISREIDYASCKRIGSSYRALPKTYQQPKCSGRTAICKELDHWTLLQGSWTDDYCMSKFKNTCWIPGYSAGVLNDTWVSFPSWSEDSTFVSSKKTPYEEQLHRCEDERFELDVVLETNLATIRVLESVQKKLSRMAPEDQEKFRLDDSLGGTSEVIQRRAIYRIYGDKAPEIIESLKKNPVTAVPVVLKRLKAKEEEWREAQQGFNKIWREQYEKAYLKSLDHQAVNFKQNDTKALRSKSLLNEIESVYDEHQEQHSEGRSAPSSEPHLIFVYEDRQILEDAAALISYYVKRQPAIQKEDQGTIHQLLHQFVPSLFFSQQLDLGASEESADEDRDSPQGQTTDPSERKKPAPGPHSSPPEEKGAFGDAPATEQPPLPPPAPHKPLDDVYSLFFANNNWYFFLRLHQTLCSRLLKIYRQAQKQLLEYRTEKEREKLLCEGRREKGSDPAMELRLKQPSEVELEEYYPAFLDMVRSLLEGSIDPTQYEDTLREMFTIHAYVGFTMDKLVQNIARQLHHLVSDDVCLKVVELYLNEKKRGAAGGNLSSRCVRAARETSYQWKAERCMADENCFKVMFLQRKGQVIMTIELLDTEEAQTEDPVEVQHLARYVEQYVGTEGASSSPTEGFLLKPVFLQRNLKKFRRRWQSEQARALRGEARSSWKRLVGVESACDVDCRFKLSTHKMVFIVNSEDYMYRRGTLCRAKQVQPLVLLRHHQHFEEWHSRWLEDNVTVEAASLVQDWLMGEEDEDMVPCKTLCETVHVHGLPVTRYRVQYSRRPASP

[3] = target: LIN37 (human (endogenous in HCT116)) (UniProt Q96GY3); experiment: co-IP; endogenous proteins immunoprecipitated with antibodies on protein A/G magnetic beads from extracts of HCT116 cells treated with 5 µM Idasanutlin for 48 hours; 150 mM NaCl, 0.2% Triton X, 3 hours at 4 °C; eluates analysed by Western blot
[4] = target: T2, SIN3B (human (endogenous in HCT116)) (UniProt O75182); experiment: as above
T2 sequence: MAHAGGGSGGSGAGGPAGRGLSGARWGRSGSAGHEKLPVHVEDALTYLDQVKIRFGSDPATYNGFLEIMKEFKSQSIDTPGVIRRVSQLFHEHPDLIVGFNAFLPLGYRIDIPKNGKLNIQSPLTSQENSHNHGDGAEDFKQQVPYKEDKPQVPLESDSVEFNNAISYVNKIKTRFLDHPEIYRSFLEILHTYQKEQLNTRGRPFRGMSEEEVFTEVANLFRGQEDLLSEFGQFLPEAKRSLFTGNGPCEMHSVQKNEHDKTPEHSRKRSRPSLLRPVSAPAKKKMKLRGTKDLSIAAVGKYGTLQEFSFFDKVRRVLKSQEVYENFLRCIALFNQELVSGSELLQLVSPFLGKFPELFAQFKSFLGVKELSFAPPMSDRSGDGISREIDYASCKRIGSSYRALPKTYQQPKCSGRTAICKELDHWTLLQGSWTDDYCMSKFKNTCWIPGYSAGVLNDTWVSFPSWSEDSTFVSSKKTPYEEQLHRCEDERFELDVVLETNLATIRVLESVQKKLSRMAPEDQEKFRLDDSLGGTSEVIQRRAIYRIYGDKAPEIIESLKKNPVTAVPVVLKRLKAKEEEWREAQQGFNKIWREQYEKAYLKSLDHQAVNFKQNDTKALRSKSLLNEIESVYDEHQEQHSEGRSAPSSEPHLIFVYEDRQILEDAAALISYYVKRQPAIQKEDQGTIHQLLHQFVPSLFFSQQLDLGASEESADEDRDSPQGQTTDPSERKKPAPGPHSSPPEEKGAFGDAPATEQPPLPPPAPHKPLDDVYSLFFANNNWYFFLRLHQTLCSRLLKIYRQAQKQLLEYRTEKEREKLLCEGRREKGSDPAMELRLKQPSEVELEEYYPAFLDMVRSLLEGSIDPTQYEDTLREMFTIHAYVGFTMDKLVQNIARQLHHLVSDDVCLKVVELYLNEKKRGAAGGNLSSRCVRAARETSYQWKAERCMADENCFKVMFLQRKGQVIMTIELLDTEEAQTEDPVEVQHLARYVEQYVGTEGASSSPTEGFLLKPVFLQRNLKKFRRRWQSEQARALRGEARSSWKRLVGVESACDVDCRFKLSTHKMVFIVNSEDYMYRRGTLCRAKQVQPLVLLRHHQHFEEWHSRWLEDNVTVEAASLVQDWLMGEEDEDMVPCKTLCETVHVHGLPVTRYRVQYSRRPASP

[5] = target: HDAC1 (human (endogenous in T98G)) (UniProt Q13547); experiment: co-IP; endogenous proteins immunoprecipitated with antibodies on protein A/G magnetic beads from extracts of T98G cells serum-starved for 96 hours; 150 mM NaCl, 0.2% Triton X, 3 hours at 4 °C; eluates analysed by Western blot
[6] = target: T3, SIN3B (human (endogenous in T98G)), O75182; experiment: as above; conditions: remark: other sources report otherwise
T3 chain: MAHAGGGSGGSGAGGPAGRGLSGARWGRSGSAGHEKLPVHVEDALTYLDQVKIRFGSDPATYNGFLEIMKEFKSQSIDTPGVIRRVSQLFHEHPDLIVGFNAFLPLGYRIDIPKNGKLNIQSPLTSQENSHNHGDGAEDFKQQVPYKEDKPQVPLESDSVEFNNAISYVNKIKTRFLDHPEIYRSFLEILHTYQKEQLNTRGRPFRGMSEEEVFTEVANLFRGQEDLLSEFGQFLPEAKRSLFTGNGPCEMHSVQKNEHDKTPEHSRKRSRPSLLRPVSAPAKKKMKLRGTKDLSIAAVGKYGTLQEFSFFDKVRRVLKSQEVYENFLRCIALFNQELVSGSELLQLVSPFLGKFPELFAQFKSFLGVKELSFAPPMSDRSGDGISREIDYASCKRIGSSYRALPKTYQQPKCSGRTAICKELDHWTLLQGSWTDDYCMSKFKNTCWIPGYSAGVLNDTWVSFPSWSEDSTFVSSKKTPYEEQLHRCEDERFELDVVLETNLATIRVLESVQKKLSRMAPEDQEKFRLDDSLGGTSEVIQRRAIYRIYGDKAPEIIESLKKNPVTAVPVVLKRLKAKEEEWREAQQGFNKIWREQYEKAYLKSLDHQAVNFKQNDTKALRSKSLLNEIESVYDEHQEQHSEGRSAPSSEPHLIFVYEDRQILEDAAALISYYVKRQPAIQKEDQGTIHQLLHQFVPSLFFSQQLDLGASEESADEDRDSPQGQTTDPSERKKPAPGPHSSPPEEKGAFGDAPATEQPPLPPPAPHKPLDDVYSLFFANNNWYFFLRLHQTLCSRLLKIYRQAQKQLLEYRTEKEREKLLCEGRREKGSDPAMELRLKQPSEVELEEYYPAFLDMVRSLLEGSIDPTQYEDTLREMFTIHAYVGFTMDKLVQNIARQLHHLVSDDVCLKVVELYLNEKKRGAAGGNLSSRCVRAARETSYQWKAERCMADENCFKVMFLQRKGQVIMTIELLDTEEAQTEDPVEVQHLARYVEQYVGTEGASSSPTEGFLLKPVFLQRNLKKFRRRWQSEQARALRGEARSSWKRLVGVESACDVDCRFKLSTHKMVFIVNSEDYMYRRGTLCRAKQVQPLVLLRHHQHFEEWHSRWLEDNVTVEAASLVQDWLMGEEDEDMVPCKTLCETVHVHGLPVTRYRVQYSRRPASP

[7] = target: T4, LIN37 (human (endogenous in T98G)), Q96GY3; experiment: as above; conditions: remark: other sources report otherwise
T4 chain: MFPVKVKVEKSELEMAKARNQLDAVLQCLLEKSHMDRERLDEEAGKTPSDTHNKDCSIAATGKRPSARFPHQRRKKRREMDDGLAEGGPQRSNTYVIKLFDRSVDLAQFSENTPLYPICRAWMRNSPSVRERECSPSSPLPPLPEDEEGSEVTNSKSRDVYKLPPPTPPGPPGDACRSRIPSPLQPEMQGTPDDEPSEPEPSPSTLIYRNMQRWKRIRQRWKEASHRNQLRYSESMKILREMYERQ

[8] = target: T5, LIN37 (human (endogenous in HCT116)), Q96GY3; experiment: co-IP; endogenous proteins immunoprecipitated with antibodies on protein A/G magnetic beads from extracts of HCT116 cells treated with 5 µM Idasanutlin for 48 hours; 150 mM NaCl, 0.2% Triton X, 3 hours at 4 °C; eluates analysed by Western blot; conditions: remark: other sources report otherwise
T5 chain: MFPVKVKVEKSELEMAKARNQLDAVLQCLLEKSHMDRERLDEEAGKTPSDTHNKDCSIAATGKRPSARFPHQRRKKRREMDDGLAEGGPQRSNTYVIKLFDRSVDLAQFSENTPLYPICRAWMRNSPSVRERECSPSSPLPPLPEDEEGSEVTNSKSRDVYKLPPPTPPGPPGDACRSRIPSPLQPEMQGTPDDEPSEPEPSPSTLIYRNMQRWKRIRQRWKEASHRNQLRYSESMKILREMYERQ

binding [1]: no binding
binding [2]: binds
binding [3]: no binding
binding [4]: binds
Molecule: HDAC1 (from UniProt Q13547 1-482) (enzyme)

binding [5]: no binding
binding [1]: binds
binding [3]: binds
Molecule: LIN9 (from UniProt Q5TKA1 1-542)

binding [6]: no binding
B1: LIN9, Q5TKA1 1-542 (protein)
chain: MAELDQLPDESSSAKALVSLKEGSLSNTWNEKYSSLQKTPVWKGRNTSSAVEMPFRNSKRSRLFSDEDDRQINTRSPKRNQRVAMVPQKFTATMSTPDKKASQKIGFRLRNLLKLPKAHKWCIYEWFYSNIDKPLFEGDNDFCVCLKESFPNLKTRKLTRVEWGKIRRLMGKPRRCSSAFFEEERSALKQKRQKIRLLQQRKVADVSQFKDLPDEIPLPLVIGTKVTARLRGVHDGLFTGQIDAVDTLNATYRVTFDRTGLGTHTIPDYEVLSNEPHETMPIAAFGQKQRPSRFFMTPPRLHYTPPLQSPIIDNDPLLGQSPWRSKISGSDTETLGGFPVEFLIQVTRLSKILMIKKEHIKKLREMNTEAEKLKSYSMPISIEFQRRYATIVLELEQLNKDLNKVLHKVQQYCYELAPDQGLQPADQPTDMRRRCEEEAQEIVRHANSSTGQPCVENENLTDLISRLTAILLQIKCLAEGGDLNSFEFKSLTDSLNDIKSTIDASNISCFQNNVEIHVAHIQSGLSQMGNLHAFAANNTNRD

binding [7]: no binding
binding [8]: no binding
B2: SIN3B, O75182 1-1162 (protein)
chain: MAHAGGGSGGSGAGGPAGRGLSGARWGRSGSAGHEKLPVHVEDALTYLDQVKIRFGSDPATYNGFLEIMKEFKSQSIDTPGVIRRVSQLFHEHPDLIVGFNAFLPLGYRIDIPKNGKLNIQSPLTSQENSHNHGDGAEDFKQQVPYKEDKPQVPLESDSVEFNNAISYVNKIKTRFLDHPEIYRSFLEILHTYQKEQLNTRGRPFRGMSEEEVFTEVANLFRGQEDLLSEFGQFLPEAKRSLFTGNGPCEMHSVQKNEHDKTPEHSRKRSRPSLLRPVSAPAKKKMKLRGTKDLSIAAVGKYGTLQEFSFFDKVRRVLKSQEVYENFLRCIALFNQELVSGSELLQLVSPFLGKFPELFAQFKSFLGVKELSFAPPMSDRSGDGISREIDYASCKRIGSSYRALPKTYQQPKCSGRTAICKELDHWTLLQGSWTDDYCMSKFKNTCWIPGYSAGVLNDTWVSFPSWSEDSTFVSSKKTPYEEQLHRCEDERFELDVVLETNLATIRVLESVQKKLSRMAPEDQEKFRLDDSLGGTSEVIQRRAIYRIYGDKAPEIIESLKKNPVTAVPVVLKRLKAKEEEWREAQQGFNKIWREQYEKAYLKSLDHQAVNFKQNDTKALRSKSLLNEIESVYDEHQEQHSEGRSAPSSEPHLIFVYEDRQILEDAAALISYYVKRQPAIQKEDQGTIHQLLHQFVPSLFFSQQLDLGASEESADEDRDSPQGQTTDPSERKKPAPGPHSSPPEEKGAFGDAPATEQPPLPPPAPHKPLDDVYSLFFANNNWYFFLRLHQTLCSRLLKIYRQAQKQLLEYRTEKEREKLLCEGRREKGSDPAMELRLKQPSEVELEEYYPAFLDMVRSLLEGSIDPTQYEDTLREMFTIHAYVGFTMDKLVQNIARQLHHLVSDDVCLKVVELYLNEKKRGAAGGNLSSRCVRAARETSYQWKAERCMADENCFKVMFLQRKGQVIMTIELLDTEEAQTEDPVEVQHLARYVEQYVGTEGASSSPTEGFLLKPVFLQRNLKKFRRRWQSEQARALRGEARSSWKRLVGVESACDVDCRFKLSTHKMVFIVNSEDYMYRRGTLCRAKQVQPLVLLRHHQHFEEWHSRWLEDNVTVEAASLVQDWLMGEEDEDMVPCKTLCETVHVHGLPVTRYRVQYSRRPASP
